Publication PMC9911399, “Two distinct binding modes provide the RNA-binding protein RbFox with extraordinary sequence specificity”
Changes are numbered by the printed parent chain; changes in the protein carry UniProt numbers. The list shows a part of the results.

T1: RBFOX1 RRM RbFoxmut (Fox-RRM*) (Homo sapiens, UniProt Q9NWB1 109-208, R118D;E147R;N151S;E152T)
T1 sequence: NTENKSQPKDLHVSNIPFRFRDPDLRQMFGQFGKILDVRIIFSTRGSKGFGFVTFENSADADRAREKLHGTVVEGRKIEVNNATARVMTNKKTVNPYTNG

B1: CACAUUC (DNA:RNA)
RNA: GGGAGACCGGAAUUCAGAUUGUCCCACAUUCUUAAAUCCCGUCGUAGCCACCA
DNA 1: CAATCTGAATTCCGGTCTCCC
DNA 2: TGGTGGCTACGACGGGATT
B2: UCGCUGG (DNA:RNA)
RNA: B1 RNA with C25U, A26C, C27G, A28C, U30G, C31G
DNA 1: CAATCTGAATTCCGGTCTCCC
DNA 2: TGGTGGCTACGACGGGATT
B3: UAGCGAU (DNA:RNA)
RNA: B1 RNA with C25U, C27G, A28C, U29G, U30A, C31U
DNA 1: CAATCTGAATTCCGGTCTCCC
DNA 2: TGGTGGCTACGACGGGATT
B4: GAAAUCC (DNA:RNA)
RNA: B1 RNA with C25G, C27A, U30C
DNA 1: CAATCTGAATTCCGGTCTCCC
DNA 2: TGGTGGCTACGACGGGATT
B5: GCAUGGG (DNA:RNA)
RNA: GGGAGACCGGAAUUCAGAUUGUCCGCAUGGGUUAAAUCCCGUCGUAGCCACCA
DNA 1: CAATCTGAATTCCGGTCTCCC
DNA 2: TGGTGGCTACGACGGGATT
B6: CCAAGUG (DNA:RNA)
RNA: B5 RNA with G25C, U28A, G30U
DNA 1: CAATCTGAATTCCGGTCTCCC
DNA 2: TGGTGGCTACGACGGGATT
B7: GAGUGAG (DNA:RNA)
RNA: B5 RNA with C26A, A27G, G30A
DNA 1: CAATCTGAATTCCGGTCTCCC
DNA 2: TGGTGGCTACGACGGGATT
B8: UGUUUGU (DNA:RNA)
RNA: B5 RNA with G25U, C26G, A27U, G29U, G31U
DNA 1: CAATCTGAATTCCGGTCTCCC
DNA 2: TGGTGGCTACGACGGGATT
B9: UCGGGUU (DNA:RNA)
RNA: B5 RNA with G25U, A27G, U28G, G30U, G31U
DNA 1: CAATCTGAATTCCGGTCTCCC
DNA 2: TGGTGGCTACGACGGGATT
B10: AACGAAG (DNA:RNA)
RNA: B1 RNA with C25A, A28G, U29A, U30A, C31G
DNA 1: CAATCTGAATTCCGGTCTCCC
DNA 2: TGGTGGCTACGACGGGATT
B11: GAUAUCG (DNA:RNA)
RNA: B1 RNA with C25G, C27U, U30C, C31G
DNA 1: CAATCTGAATTCCGGTCTCCC
DNA 2: TGGTGGCTACGACGGGATT
B12: ACGUGUG (DNA:RNA)
RNA: B5 RNA with G25A, A27G, G30U
DNA 1: CAATCTGAATTCCGGTCTCCC
DNA 2: TGGTGGCTACGACGGGATT
B13: ACGGUAG (DNA:RNA)
RNA: B5 RNA with G25A, A27G, U28G, G29U, G30A
DNA 1: CAATCTGAATTCCGGTCTCCC
DNA 2: TGGTGGCTACGACGGGATT
B14: UAUCGUU (DNA:RNA)
RNA: B1 RNA with C25U, C27U, A28C, U29G, C31U
DNA 1: CAATCTGAATTCCGGTCTCCC
DNA 2: TGGTGGCTACGACGGGATT
B15: CACUAGA (DNA:RNA)
RNA: B1 RNA with A28U, U29A, U30G, C31A
DNA 1: CAATCTGAATTCCGGTCTCCC
DNA 2: TGGTGGCTACGACGGGATT
B16: UGCGCGU (DNA:RNA)
RNA: B1 RNA with C25U, A26G, A28G, U29C, U30G, C31U
DNA 1: CAATCTGAATTCCGGTCTCCC
DNA 2: TGGTGGCTACGACGGGATT
B17: AGGCACA (DNA:RNA)
RNA: GGGAGACCGGAAUUCAGAUUGUCCAGGCACAUUAAAUCCCGUCGUAGCCACCA
DNA 1: CAATCTGAATTCCGGTCTCCC
DNA 2: TGGTGGCTACGACGGGATT
B18: GCCUGGG (DNA:RNA)
RNA: B5 RNA with A27C
DNA 1: CAATCTGAATTCCGGTCTCCC
DNA 2: TGGTGGCTACGACGGGATT
B19: CUUAGCG (DNA:RNA)
RNA: B1 RNA with A26U, C27U, U29G, U30C, C31G
DNA 1: CAATCTGAATTCCGGTCTCCC
DNA 2: TGGTGGCTACGACGGGATT
B20: AUGUUAA (DNA:RNA)
RNA: B17 RNA with G26U, C28U, A29U, C30A
DNA 1: CAATCTGAATTCCGGTCTCCC
DNA 2: TGGTGGCTACGACGGGATT

Target: T1, RBFOX1 RRM RbFoxmut (Fox-RRM*)
Assay: EMSA; HiTS-Eq, 1 nM pool, 10 min; buffer printed only for the single-RNA assays: 10 mM Tris pH 7.5, 150 mM NaCl, 3.4 mM EDTA, 0.001% NP-40, 30 C
Conditions: tags: His6 N-terminal (pET28a); label: 5' 32P
How it was run: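 These values rest on relative association constants, computed from read-count changes of each RNA species versus the control reaction and normalised to the cognate motif. Reads came from free RNA recovered by 8% native PAGE after purified RbFox RRM (wild type or mutant) at increasing concentrations was equilibrated for 10 min in 50 µL with 1 nM of a 5′-radiolabelled pool with 7 randomized nucleotides and DNA-annealed flanks.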

Row | Binder | binding signal
1 | B1 | 0.0841 KA relative to UGCAUGU
2 | B2 | 0.11 KA relative to UGCAUGU
3 | B3 | 0.0684 KA relative to UGCAUGU
4 | B4 | 0.0537 KA relative to UGCAUGU
5 | B5 | 0.322 KA relative to UGCAUGU
6 | B6 | 0.119 KA relative to UGCAUGU
7 | B7 | 0.133 KA relative to UGCAUGU
8 | B8 | 0.549 KA relative to UGCAUGU
9 | B9 | 0.0985 KA relative to UGCAUGU
10 | B10 | 0.0636 KA relative to UGCAUGU
11 | B11 | 0.148 KA relative to UGCAUGU
12 | B12 | 0.203 KA relative to UGCAUGU
13 | B13 | 0.125 KA relative to UGCAUGU
14 | B14 | 0.0894 KA relative to UGCAUGU
15 | B15 | 0.122 KA relative to UGCAUGU
16 | B16 | 0.153 KA relative to UGCAUGU
17 | B17 | 0.0759 KA relative to UGCAUGU
18 | B18 | 0.104 KA relative to UGCAUGU
19 | B19 | 0.119 KA relative to UGCAUGU
20 | B20 | 0.154 KA relative to UGCAUGU
